# Whole data set: some 110,000 compounds, median “z-score” near -0.1, cut for the highest 2% near 2. Some of the results follow. Active and inactive are the calls of the source.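 Rule for the calls: active = z-score in the third read window above 3 or below -3; inactive = the rest.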
# Biological target: Metabotropic glutamate receptor 8 (Rattus norvegicus) (UniProt P70579)
# Assay: rat mGluR8 modulators via GIRK flux, primary screen, cell-based, thallium flux, HTS (AID 488969)
# Conditions: HEK293 rat mGluR8, GIRK (G protein-gated inwardly rectifying potassium channel) thallium flux, FluoZin2; at 10 µM; stronger effect = higher value; submaximal glutamate (EC20) added with thallium
# Sequence of UniProt P70579 (P70579 whole entry, looked up): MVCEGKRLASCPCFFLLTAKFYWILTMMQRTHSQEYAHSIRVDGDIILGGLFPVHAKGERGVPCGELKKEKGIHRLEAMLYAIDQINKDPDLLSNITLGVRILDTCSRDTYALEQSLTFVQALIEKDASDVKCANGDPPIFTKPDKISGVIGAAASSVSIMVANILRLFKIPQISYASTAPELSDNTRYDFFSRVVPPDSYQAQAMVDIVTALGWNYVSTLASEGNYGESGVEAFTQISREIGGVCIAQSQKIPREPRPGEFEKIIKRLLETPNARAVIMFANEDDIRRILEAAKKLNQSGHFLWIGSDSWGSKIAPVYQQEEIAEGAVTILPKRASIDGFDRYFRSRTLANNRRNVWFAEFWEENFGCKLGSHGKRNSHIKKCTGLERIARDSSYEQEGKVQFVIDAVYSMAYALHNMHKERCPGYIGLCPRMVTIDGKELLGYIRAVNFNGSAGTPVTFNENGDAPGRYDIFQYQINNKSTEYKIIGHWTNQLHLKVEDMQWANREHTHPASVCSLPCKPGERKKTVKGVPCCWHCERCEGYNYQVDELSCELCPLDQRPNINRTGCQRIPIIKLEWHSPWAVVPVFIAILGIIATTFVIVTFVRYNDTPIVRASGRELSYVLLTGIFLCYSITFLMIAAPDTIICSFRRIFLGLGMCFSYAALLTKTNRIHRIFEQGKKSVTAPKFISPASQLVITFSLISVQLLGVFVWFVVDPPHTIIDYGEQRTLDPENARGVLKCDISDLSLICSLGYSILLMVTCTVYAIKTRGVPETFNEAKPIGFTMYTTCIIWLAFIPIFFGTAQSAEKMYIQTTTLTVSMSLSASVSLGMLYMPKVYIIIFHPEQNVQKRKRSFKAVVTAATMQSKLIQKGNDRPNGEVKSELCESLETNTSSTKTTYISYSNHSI
row,Structure (SMILES),z-score
1,COc1ccc(S(=O)(=O)N(CCCN2CCOCC2)Cc2cccc3ccccc23)cc1,0.0075
2,Cc1cc(NC(=O)c2cc3nc(C4CC4)cc(C(F)(F)F)n3n2)no1,0.0343
3,O=C(CCNC(=O)Cn1ccc2ccccc2c1=O)NCCCN1CCN(c2ccc(F)cc2)CC1,0.148
4,C/C(=N\OC(=O)c1ccc(F)cc1)c1nccs1,0.407
5,COC(=O)c1sc(S(=O)(=O)N2CCN(c3ccc(OC)cc3)CC2)c(C(=O)OC)c1C,-0.22
6,O=C(NCc1ccccn1)c1ccc(CS(=O)(=O)Cc2ccc(Cl)cc2)o1,-0.182
7,CCOC(=O)c1c(C)[nH]c(C(=O)NNC(=O)c2ccc(C(C)(C)C)cc2)c1C,0.0237
8,Cc1[nH]n(-c2ccccc2)c(=O)c1-c1cccc(Cl)c1,0.257
9,CCOc1ccccc1-n1nnnc1SCc1nc2ccccc2s1,-0.0391
10,O=C(Nc1nnc(Cc2ccc(Cl)cc2)s1)c1cccs1,-0.0593
11,NS(=O)(=O)c1ccc(NC(=O)CSc2nnc(Cc3cccs3)n2-c2ccccc2)cc1,-0.158
12,O=C(c1ccco1)N1CCN(Cc2cccc(F)c2)CC1,0.086
13,COc1ccc(-c2csc(C)n2)cc1OC,-0.285
14,CC1CCCN(S(=O)(=O)c2ccc(C(=O)Nc3ccccc3-c3nc4ccccc4[nH]3)cc2)C1 (configuration not stated),-0.205
15,COc1ccc(CCN2C(=O)c3[nH]nc(-c4ccccc4O)c3C2c2ccc(C)cc2)cc1OC (configuration not stated),0.636
16,Cc1cccc(C)c1N(CC(=O)Nc1cc(Cl)ccc1Oc1ccccc1)S(C)(=O)=O,0.373
17,CC12C(=O)N(c3ccccc3C(=O)O)C(=O)C1C1C=CC2C1 (configuration not stated),0.0405
18,Cc1cc(C)nc(NS(=O)(=O)c2ccc(N/C=C\C(=O)c3ccc(Cl)cc3)cc2)n1,-0.142
19,CN1CCN(C(=O)c2ccccc2-c2ccccc2C(=O)O)CC1,-0.138
20,Cc1ccc(-c2[nH]n3c(=O)c4c(nc3c2C)CCCC4)cc1,active: 11
21,Cc1nc(N/C(N)=N/S(=O)(=O)c2ccc([N+](=O)[O-])cc2)nc2ccccc12,0.523
22,CCOC(=O)C1C(=O)NC(N2CCOCC2)=NC1c1ccco1 (configuration not stated),-0.222
23,COc1ccc(C(=O)O/N=C/c2c(C(F)(F)F)nn(C)c2SCc2ccccc2Cl)cc1,0.622
24,C=CCOc1cccc(/C=N/NC(=O)C(=O)NCc2ccco2)c1,0.452
25,O=C(C1CC1)n1cc(C(=S)N2CCOCC2)c2ccccc21,-0.165
26,Cc1ccc2nsnc2c1S(=O)(=O)N1CCN(Cc2ccc3c(c2)OCO3)CC1,-0.0391

row,Structure (SMILES),z-score
1,C=CCNC(=O)c1snnc1-c1ccccc1,-0.0951
2,COC(=O)c1cnn(-c2cc(Oc3ccccc3)ncn2)c1N,-0.178
3,Cc1cc(NS(=O)(=O)c2ccc(NC(=O)C(C(C)C)N3C(=O)c4ccccc4C3=O)cc2)nc(C)n1 (configuration not stated),1.19
4,CCOC(=O)CSc1nc2cc(OC)ccc2cc1C#N,-0.215
5,Cc1ccc(-n2c(C)cc(C(=O)COC(=O)C3=NNC(=O)CC3)c2C)cc1,-0.922
6,N#CC1=C(O)CCCn2c1nc1ccccc1c2=O,-0.569
7,Cc1ccccc1OCC(=O)Nc1ccc2c(c1)C(=O)c1ccccc1C2=O,0.18
8,CC(=O)Nc1ccc(C)cc1NC(C)=O,-0.00242
9,O=S(=O)(Nc1ccc2c(c1)nc1n2CCOC1)c1ccc(Cl)cc1,-0.0886
10,CCOC(=O)N1CCN(C(=O)c2ccc(C)c(S(=O)(=O)Nc3ccccc3)c2)CC1,-0.0994
11,O=[N+]([O-])c1ccc(N2CCN(S(=O)(=O)c3ccccc3)CC2)cc1NCCN1CCOCC1,-0.342
12,Cc1ccc(NC(=O)c2nc[nH]c2C(=O)N2CCCCC2)c(C(=O)c2ccccc2)c1,-0.675
13,Cc1cc(C(=O)N2CCCc3ccccc32)no1,0.411
14,O=C1c2cccc3cccc(c23)C(=O)N1CCN1CCN(CC(O)COc2ccc3ccccc3c2)CC1 (configuration not stated),0.0371
15,CCOc1ccc2[nH]c(=O)c(CN(Cc3cccnc3)C(=O)Nc3ccccc3OC)cc2c1,-0.284
16,O=C(O)c1ccc(NC(=S)NC2CCCCC2)cc1,0.13
17,CCOC(=O)c1c(NC(=O)Cc2cccs2)sc(C(=O)NC2CCCCC2)c1C,-0.382
18,N#Cc1ccc(NC(=O)c2sc3cc(C(F)(F)F)cnc3c2-c2cccs2)cc1,0.118
19,COc1ccc(C2C(C(=O)Nc3cccnc3)=C(C)Nc3nc(-c4cccs4)nn32)cc1OC (configuration not stated),-0.25
20,CC1CN(CC(=O)Nc2ccccc2Sc2ccccc2)CC(C)O1 (configuration not stated),-0.148
21,CCOc1c2ccc(C(=O)NCc3ccc(OC(F)(F)F)cc3)cc2nn1CC,-0.277
22,CCCOc1ccc(N2C(=O)C3C(C(C)C)NC4(C(=O)c5ccccc5C4=O)C3C2=O)cc1 (configuration not stated),0.251
23,CCOC(=O)N/N=C\c1ccc([N+](=O)[O-])o1,0.19
24,COc1ccc(OC)c(NC(=O)c2ccc3c(=O)n(CCc4ccccc4)c(=S)[nH]c3c2)c1,1.14
25,O=C(CCC1CCCC1)c1c(O)c2ccccc2oc1=O,0.412
26,Cc1ccc(C(=O)N/C(=C/c2ccc(-c3ccc(Br)cc3)o2)C(=O)NC2CCS(=O)(=O)C2)cc1 (configuration not stated),-0.135

# Source: PubChem BioAssay AID488969 (Vanderbilt High Throughput Screening Facility, 2010)
